Measured values: the supplement of paper PMC7826260
The other results are listed elsewhere or left out. Each Rep nickase domain was tested in vitro on the same pool of single strands (3 µM enzyme, 1 h, 37 °C); shown is the middle of each 90-letter strand. A value is the log2 ratio of uncut reads to the pool without enzyme; uncut sequences lie near 0, cut ones below; no hit call is given. The scaling is to total reads; uncut strands gain when others are lost, and binding without cutting may add a little.

Experiments:
Experiment in all cases: uncleaved DNA left, log2 of reads against the no-enzyme library (log2 ratio); higher = less cleavage (more negative = more Rep cleavage of the k-mer); sequences stand for … in CTCGTCCG…ACCGGAGA
[1] = test system: T1, Rep nickase domain of Muscovy duck circovirus
T1 sequence (residues 1-111, tag not shown): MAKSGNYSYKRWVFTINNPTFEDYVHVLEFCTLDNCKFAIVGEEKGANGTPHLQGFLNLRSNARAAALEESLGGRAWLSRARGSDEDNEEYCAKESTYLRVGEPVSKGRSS
Description: (§1)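 A pool of 90-nt single-stranded DNAs with seven random bases just before the constant AC of the nick site (name = the seven bases) was cut by 3 µM recombinant His6-SUMO-tagged Rep nickase domain (300 nM DNA, 50 mM HEPES pH 8.0, 50 mM NaCl, 1 mM MnCl2, 1 h, 37 °C, three replicates). Uncut DNA was amplified and sequenced.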

[2] = test system: T2, Rep nickase domain of banana bunchy top virus
T2 sequence (residues 1-94, tag not shown): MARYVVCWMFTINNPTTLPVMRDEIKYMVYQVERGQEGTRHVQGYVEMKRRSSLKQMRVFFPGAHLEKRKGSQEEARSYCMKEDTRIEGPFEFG
Description: as §1

[3] = test system: T3, Rep nickase domain of cabbage leaf curl virus
T3 sequence (residues 1-116, tag not shown): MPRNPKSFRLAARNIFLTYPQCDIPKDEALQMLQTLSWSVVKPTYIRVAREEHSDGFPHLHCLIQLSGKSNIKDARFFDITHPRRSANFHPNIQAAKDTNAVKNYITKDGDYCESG
Description: as §1

[4] = test system: T4, Rep nickase domain of chickpea chlorotic dwarf virus
T4 sequence (residues 1-124, tag not shown): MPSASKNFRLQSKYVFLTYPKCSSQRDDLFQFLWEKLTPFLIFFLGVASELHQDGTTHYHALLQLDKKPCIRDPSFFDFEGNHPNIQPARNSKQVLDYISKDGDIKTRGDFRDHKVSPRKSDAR
Description: as §1

[5] = test system: T5, Rep nickase domain of faba bean necrotic yellows virus
T5 sequence (residues 1-98, tag not shown): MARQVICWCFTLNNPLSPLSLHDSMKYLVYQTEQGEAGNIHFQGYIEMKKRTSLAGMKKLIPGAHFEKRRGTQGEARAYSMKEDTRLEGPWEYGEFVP
Description: as §1

[6] = test system: T6, Rep nickase domain of maize striate mosaic virus
T6 sequence (residues 1-117, tag not shown): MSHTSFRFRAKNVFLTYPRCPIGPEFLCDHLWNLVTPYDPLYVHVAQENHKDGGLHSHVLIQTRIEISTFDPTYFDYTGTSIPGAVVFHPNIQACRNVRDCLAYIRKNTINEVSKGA
Description: as §1

[7] = test system: T7, Rep nickase domain of porcine circovirus 2
T7 sequence (residues 2-116, tag not shown): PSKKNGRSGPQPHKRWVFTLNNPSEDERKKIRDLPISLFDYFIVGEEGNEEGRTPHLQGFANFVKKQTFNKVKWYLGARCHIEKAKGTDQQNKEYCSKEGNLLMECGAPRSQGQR
Description: as §1

[8] = test system: T8, Rep nickase domain of tomato golden mosaic virus
T8 sequence (residues 1-124, tag not shown): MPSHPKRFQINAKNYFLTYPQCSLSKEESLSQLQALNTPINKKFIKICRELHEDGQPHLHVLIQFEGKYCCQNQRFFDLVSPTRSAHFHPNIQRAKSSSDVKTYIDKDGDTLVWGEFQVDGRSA
Description: as §1

[9] = test system: T9, Rep nickase domain of tomato yellow leaf curl virus
T9 sequence (residues 1-136, tag not shown): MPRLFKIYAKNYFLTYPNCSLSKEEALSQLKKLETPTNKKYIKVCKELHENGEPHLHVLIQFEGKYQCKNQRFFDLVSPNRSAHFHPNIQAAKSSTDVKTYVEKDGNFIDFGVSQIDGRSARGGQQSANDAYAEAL
Description: as §1

[10] = test system: T10, Rep nickase domain of wheat dwarf virus
T10 sequence (residues 1-137, tag not shown): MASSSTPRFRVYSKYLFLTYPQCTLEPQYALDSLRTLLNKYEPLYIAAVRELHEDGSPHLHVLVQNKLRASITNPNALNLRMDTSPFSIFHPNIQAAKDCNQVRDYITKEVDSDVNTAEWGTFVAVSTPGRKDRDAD
Description: as §1

| Sequence | uncleaved DNA left (log2) [1] | uncleaved DNA left (log2) [2] | uncleaved DNA left (log2) [3] | uncleaved DNA left (log2) [4] | uncleaved DNA left (log2) [5] | uncleaved DNA left (log2) [6] | uncleaved DNA left (log2) [7] | uncleaved DNA left (log2) [8] | uncleaved DNA left (log2) [9] | uncleaved DNA left (log2) [10] |
| --- | --- | --- | --- | --- | --- | --- | --- | --- | --- | --- |
| GCTTAGG | 0.0288 | 0.138 | 0.294 | 1.2 | 0.111 | 1.06 | 0.162 | 0.127 | -0.0689 | 0.146 |
| TAGCCCG | 0.0358 | -0.0938 | -0.763 | -0.343 | 0.00656 | -1.08 | -0.257 | -0.0739 | 0.0578 | -0.174 |
| GCCTAAA | -0.198 | -0.0482 | 0.135 | 0.375 | -0.133 | 0.205 | -0.183 | -0.0272 | -0.0622 | -0.142 |
| GGCTTCT | -0.231 | 0.0475 | 0.21 | 0.415 | -0.019 | 1.45 | -1.35 | -0.228 | 0.0389 | -0.046 |
| TAAAGGA | 0.197 | 0.142 | 0.234 | -0.029 | 0.16 | -0.122 | 0.238 | 0.2 | 0.114 | 0.179 |
| TCGATTT | -0.101 | -0.228 | -0.408 | -2.07 | -0.0922 | -0.193 | -1.53 | -0.133 | 0.0544 | -0.142 |
| CAAGATC | -0.0348 | 0.0109 | -0.0493 | -0.578 | 0.135 | -0.299 | 0.00708 | -0.0314 | 0.0871 | 0.0647 |
| GCTACTA | -0.121 | -0.106 | -0.0881 | -0.686 | -0.0647 | 0.327 | -0.0739 | -0.0856 | -0.0601 | -0.00286 |
| ATCGGAA | 0.0374 | 0.0829 | 0.187 | 0.948 | -0.0437 | 0.817 | 0.0484 | 0.0157 | -0.0391 | 0.106 |
| CAGTCCT | -0.735 | -2.88 | -0.395 | -2.74 | -2.05 | -0.42 | -3.77 | 0.0288 | -0.0619 | -0.0164 |
| TGATTCC | -0.265 | 0.0297 | 0.24 | 0.143 | 0.0514 | 0.504 | -0.44 | 0.0186 | -0.0514 | 0.0796 |
| AACATAT | 0.0982 | 0.0544 | -0.0549 | -1.55 | 0.0351 | -0.497 | -0.924 | 0.0576 | -0.0976 | 0.000442 |
| TTTGGCT | 0.0545 | 0.00065 | -0.329 | -1.05 | 0.0611 | -0.943 | -0.0128 | -0.117 | -0.0239 | -0.062 |
| TGGGCGT | 0.167 | 0.0516 | 0.638 | 1.32 | 0.148 | 1.14 | 0.234 | 0.115 | 0.108 | 0.249 |
| TGCCACA | -0.214 | -0.0281 | 0.0642 | -0.718 | -0.0278 | -0.159 | -0.113 | -0.06 | -0.0122 | -0.0385 |
| TCATCAC | 0.0427 | 0.0135 | 0.0565 | -0.205 | 0.0554 | -0.608 | 0.0863 | -0.0434 | 0.0574 | -0.00362 |
| AACGCTT | 0.011 | -0.0917 | 0.0139 | -2.25 | 0.0503 | 1.13 | -0.564 | 0.0221 | -0.228 | 0.0123 |
| AACTATA | -0.374 | -0.172 | -0.363 | -2.91 | -0.0404 | -0.741 | -3.12 | -0.0746 | -0.0733 | -0.00416 |
| CCGCCTA | -0.183 | -0.102 | -0.084 | -0.969 | -0.106 | -0.457 | -0.158 | 0.0201 | -0.16 | -0.0783 |
| TCTCGGC | 0.123 | 0.022 | 0.215 | 0.194 | 0.00386 | -0.0256 | 0.164 | 0.0332 | 0.043 | 0.0663 |
| ATAAGGA | -0.0118 | 0.0102 | -0.181 | 0.218 | 0.061 | -0.186 | 0.129 | 0.168 | -0.00168 | -0.000703 |
| GACATGG | 0.163 | 0.13 | 0.114 | 0.489 | 0.0765 | -0.127 | 0.205 | 0.105 | 0.0393 | 0.0984 |
| TTATCCA | -0.0252 | 0.15 | 0.347 | -0.298 | 0.112 | 0.431 | 0.0105 | -0.0324 | 0.173 | 0.222 |
| GTCAGTA | 0.031 | 0.14 | 0.321 | 0.831 | 0.106 | 1.59 | 0.144 | 0.183 | 0.0784 | 0.125 |
| TATTACC | -3.91 | -3.13 | -2.97 | -3.11 | -3.26 | -1.11 | -3.72 | -2.94 | -0.0714 | -3.24 |
| GTACTCG | -0.0504 | 0.0135 | -0.568 | -0.817 | -0.0426 | -0.839 | 0.0361 | -0.0235 | 0.0605 | -0.0353 |
| TTACGCA | 0.0611 | -0.0307 | -0.149 | -1.26 | 0.0879 | -0.678 | -0.0477 | -0.143 | 0.0466 | 0.0343 |
| TATATCC | 0.0686 | -0.0237 | 0.144 | -0.192 | -0.126 | -0.233 | 0.052 | -0.0423 | 0.0772 | 0.101 |
| TCATCGT | -0.0655 | -0.0825 | -0.515 | -1.33 | -0.0952 | -1.17 | -0.171 | -0.159 | -0.237 | -0.164 |
| TCCTGGG | -0.0499 | -0.0675 | -0.35 | -0.372 | 0.0273 | -0.74 | 0.191 | 0.0404 | 0.0109 | 0.0337 |
